Screen size: about 350,000 compounds; about 9,900 (2.8%) were called active. This list was built around the results that the source calls inconclusive (neither active nor inactive); the mix of calls is not that of the screen. Calls come from the whole dose curve; as a rule, active = well fitted activation curve with a large enough effect; inconclusive = small, poorly fitted or top-dose-only effect; inactive = no such curve, though single readings can be large or run the other way. No potency is given beside an inconclusive call; the fits are too rough.
Assay: A quantitative high throughput screen for small molecules that induce DNA re-replication in MCF 10a normal breast cells. For activity, positive = re-replication: % of control where 0% means no effect. Note: nearly all actives have a fitted effect of over 50% in size.
Conditions: MCF 10A DNA re-replication, Hoechst nuclear intensity, 48 h; activity, positive = re-replication: at 46.1 µM (top of the series)
Potency is the fitted concentration of half-maximal effect; tags give direction and shape of the fitted curve.

| SMILES | Potency | activity, positive = re-replication |
| --- | --- | --- |
| COc1ccnc2c1c(=O)n(Cc1ccc(Cl)cc1)c(=O)n2C | inconclusive [activator, single point] |  |
| O=C(NCC(c1cccs1)N1CCOCC1)c1ccc(Cl)nc1 (stereo not given) | active: 18.4 µM |  |
| COc1cc(NC(=O)c2ccc(-c3cccc(F)c3)o2)ccc1NC(=O)c1ccccc1Cl |  | inactive: 2.59% |
| CCCCn1c(=N)n(CC(O)COc2ccc(C)cc2)c2ccccc21 (stereo not given) |  | inactive: 5.2% |
| CCOC(=O)c1cc(N2CCCCC2)nc2ccccc12 | inconclusive [activator, single point] |  |
| O=C(/C=C/c1ccc(-c2ccccc2[N+](=O)[O-])o1)c1ccccc1 | inconclusive [activator, single point] |  |
| Cc1ccc(C(=O)Oc2coc(CSc3nnc(NC(=O)C4CC4)s3)cc2=O)cc1 | inconclusive [activator, partial curve, poor fit] |  |
| CCOC(=O)c1[nH]c(C)c(CN(Cc2ccco2)C(=O)C(F)(F)F)c1C | inconclusive [activator, partial curve, poor fit] |  |
| COc1cc2c(cc1OC)CN(C1CCC(C(C)(C)C)CC1)CC2 (stereo not given) | inconclusive [activator, single point] |  |
| CCCc1ccc(-c2cc(C(=O)NC3=NCCS3)c3ccccc3n2)cc1 | inconclusive [activator, partial curve, poor fit] |  |
| Cc1ccc(C(=O)OCC(=O)Nc2sccc2C(N)=O)cc1NC(=O)c1ccco1 |  | inactive: 5.57% |
| O=S(=O)(c1ccc(-c2csc(-c3cccnc3)n2)cc1)N1CCCC1 |  | inactive: -179% [at 0.0737 µM] |
| CCOC(=O)C1=C(C)NC(=O)NC1c1ccc(N2CCC(c3ccccc3)=N2)cc1 (stereo not given) | inconclusive [activator, partial curve, poor fit] |  |
| COc1ccc(-n2cnnc2SCC(=O)NC2CCCCC2)cc1 |  | inactive: 1.11% |
| Cc1cc(NS(=O)(=O)c2ccc(NC(=O)C(C)Oc3cc(C)c(Cl)c(C)c3)cc2)no1 (stereo not given) | inconclusive [activator, full curve, poor fit] |  |
| CO/N=C/CC(=O)c1cnc(-c2ccccc2)s1 |  | inactive: 14.7% |
| Fc1ccc(-c2ccc3c(c2)C2CC3CCN2Cc2ccc3c(c2)OCO3)cc1 (stereo not given) | inconclusive [activator, single point] |  |
| COC(=O)c1sc(NC(=O)c2oc3ccccc3c2C)nc1C |  | inactive: 0.296% |
| O=C(CN1C(=O)NC2(CCCC2)C1=O)Nc1ccc(Cl)cc1F |  | inactive: 0.822% |
| Cc1cc(NC(=O)c2ccc(NC(=O)c3cccs3)cc2)no1 |  | inactive: 1.16% |
| Cc1cc(=O)n(CC(=O)NCCN2CCOCC2)c2c1c(C)nn2-c1ccccc1 |  | inactive: 0.284% |
| CC(=O)c1sc2c(c1OC(=O)c1ccccc1)c(=O)n(-c1ccccc1)c(=S)n2-c1ccccc1 | inconclusive [activator, full curve] |  |

| SMILES | Potency | activity, positive = re-replication |
| --- | --- | --- |
| Nc1nonc1C(=O)N/N=C/c1cc(Br)ccc1O |  | inactive: -16.3% |
| N/C(=N\OC(=O)COc1ccc(Cl)cc1Br)c1cccnc1 | inconclusive [activator, single point] |  |
| Cc1cc(Nc2ncc(Cl)cc2Cl)n(-c2ccccc2C)n1 | inconclusive [activator, partial curve, poor fit] |  |
| COc1ccc(NC(=O)[C@H](C)NC(=O)[C@@H]2Cc3ccccc3CN2C(=O)OC(C)(C)C)cc1 |  | inactive: 0.0574% |
| O=C(CSc1nc2ccccc2c(=O)n1-c1cccc(C(F)(F)F)c1)NC1CC1 | inconclusive [activator, single point] |  |
| Nc1c(C(=O)c2cccs2)sc2nsc(SCCN3CCCCC3)c12 | inconclusive [activator, single point] |  |
| C=CCNC(=S)N/N=C/c1ccc(C)cc1C | inconclusive [activator, partial curve, poor fit] |  |
| N#Cc1c2c(c(NCCCN3CCOCC3)n3c1nc1ccccc13)CCC2 | inconclusive [activator, partial curve, poor fit] |  |
| Cc1cccc(N(Cc2ccccc2)C(=O)c2ccccc2F)c1 | inconclusive [activator, partial curve, poor fit] |  |
| CCN(c1ccccc1)c1cc2ccccc2c(=O)[nH]1 | inconclusive [activator, partial curve] |  |
| COc1cc(NS(=O)(=O)c2ccc(Nc3nc(-c4cccc([N+](=O)[O-])c4)cs3)cc2)nc(OC)n1 | inconclusive [activator, single point] | inconclusive: 98.3% [activator] |
| O=C(CC1SC(=Nc2ccccc2)N(CCc2c[nH]c3ccccc23)C1=O)Nc1ccccc1F (stereo not given) | inconclusive [activator, partial curve, poor fit] |  |
| CCn1ccnc1CN(C)C(=O)c1cc(COc2ccc(OC)c3ccccc23)on1 |  | inactive: -0.194% |
| COc1ccc(-c2c(C#Cc3ccsc3)c3cc(-c4ccc(C(N)=O)cc4)ccc3n2C)cc1 | inconclusive [activator, partial curve, poor fit] |  |
| Cc1cc(Cl)ccc1NNC(=O)c1snnc1C | inconclusive [activator, single point] |  |
| Cc1cc(=O)c2c(o1)C(=O)c1occc1C2=O | inconclusive [activator, single point] |  |
| CN(CC(=O)Nc1nc2ccccc2s1)S(=O)(=O)c1ccc(Br)cc1 | inconclusive [activator, single point] |  |
| O=C(CCN1CCOCC1)NNC(=S)NC(=O)c1ccc(Br)cc1 |  | inactive: -1.81% |
| O=C(Nc1ccc(N2CCN(C(=O)c3ccco3)CC2)cc1)c1ccccc1Br |  | inactive: 2.46% |
| CCc1ccc(NC(=O)c2cnn3c(C(F)F)cc(C)nc23)cc1 |  | inactive: 12.7% |
| CNCCCOc1ccc(Cl)cc1C(C)(C)C | inconclusive [activator, partial curve, poor fit] |  |
| O=C1NC(CCc2ccccc2)C(=O)N1CCOc1ccccc1 (stereo not given) | active: 6.51 µM |  |

— PubChem BioAssay AID624296 (National Center for Advancing Translational Sciences (NCATS), 2012)
